Test results taken from the supplement of paper PMC11125491.
± gives the standard deviation of the averaged measurements. Growth of baker's yeast expressing single-residue variants of Pneumocystis jirovecii dihydrofolate reductase in 8.8 or 44 µM methotrexate (about 75% and 90% inhibition of the wild type). Selection coefficient per generation; 0 = like wild type, above 0 = less sensitive, below 0 = more sensitive or loss of function. No active / inactive call per row; the paper calls resistant above 0.220 (8.8 µM) or 0.243 (44 µM) together with a significance test. At 44 µM about 15% of codons end with one read or none, so the lowest values are floors (replicate rank correlation 0.74; 0.94 at 8.8 µM).

B1: UniProt A0EPZ9; numbered along this chain (parent)
chain: MDWQKSLTLIVALTLSRGIGLKNDLPWKLKSDMMFFSRVTSGLLVTRSTGQMNVVLMGRKTWESLPAHSRPLKNRINVVISRQEVLDLGGGAYHARSLDDALALLSQIYDSTSKIQLNRVFVIGGGELCKAAMEHSRLNRIIATVIHNEVDCDVFFPIDFRSSQSCLPWRKQDHSVLEAWVGSKVPQGKINENGFIYEFEMWIRDI

Variants of: B1
Test: selection coefficient against synonymous wild-type codons (log2 per generation); higher = faster growth than wild type
Conditions: with Saccharomyces cerevisiae carrying the variant on a plasmid
Procedure: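 Pooled growth of yeast carrying single-residue variants of P. jirovecii dihydrofolate reductase (own DFR1 gene intact), two passages at 30 °C, three cultures, sequenced before and after. Codons with under 15 starting reads are left out; codons of one change are averaged.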

Variant | selection coefficient against synonymous wild-type codons (log2) (methotrexate 8.8 µM) | selection coefficient against synonymous wild-type codons (log2) (methotrexate 44 µM)
MDWQKSLTLIVALTLSRGIGLKNDLPWKLKSDMMFFSRVTSGLLVTRSTGQMNVVLMGRKTWESLPAHSRPLKNRINVVISRQEVLDLGGGAYHARSLDDALALLSQIYDSTSKIQLNRVFVIGGGELCKAAMEHSRLNRIIATVIHNEVDCSVFFPIDFRSSQSCLPWRKQDHSVLEAWVGSKVPQGKINENGFIYEFEMWIRDI [D153S] | 0.0671 ± 0.049 | -0.0605 ± 0.1
MDWQKSLTLIVALTLSRGIGLKNDLPWKLKSDMMFFSRVTSGLLVTRSTGQMNVVLMGRKTWESLPAHSRPLKNRINVVISRQEVLDLGGGAYHARSLDDALALLSQIYDSTSKIQLNRVFVIGGGELCKAEMEHSRLNRIIATVIHNEVDCDVFFPIDFRSSQSCLPWRKQDHSVLEAWVGSKVPQGKINENGFIYEFEMWIRDI [A132E] | -0.682 ± 0.054 | -0.446 ± 0.059
MDWQKSLTLIVALTLSRGIGLKNDLPWKLKSDMMFFSRVTSGLLVTRSTGQMNVVLMGRKTWESLPAHSRPLKNRINVVISRQEVLDLGGGAYHARSLDDALALLSQIYDSTSKIQLNRVFVIGGGELCKAAMEHSRLCRIIATVIHNEVDCDVFFPIDFRSSQSCLPWRKQDHSVLEAWVGSKVPQGKINENGFIYEFEMWIRDI [N139C] | -0.102 ± 0.03 | -0.104 ± 0.13
MDWQKSLHLIVALTLSRGIGLKNDLPWKLKSDMMFFSRVTSGLLVTRSTGQMNVVLMGRKTWESLPAHSRPLKNRINVVISRQEVLDLGGGAYHARSLDDALALLSQIYDSTSKIQLNRVFVIGGGELCKAAMEHSRLNRIIATVIHNEVDCDVFFPIDFRSSQSCLPWRKQDHSVLEAWVGSKVPQGKINENGFIYEFEMWIRDI [T8H] | -0.185 ± 0.17 | -0.0863 ± 0.12
MDWQKSLTLIVALTLSRGIGLKNDLPWKLKSDMMFFSRVTSGLLVTRSTGQMNVVLMGRKTWESLPAHSRPLKNRINVVISRQEVLDLGGGAYHARSLDDALALLSQIYDSTSKIQLNRVFVIGGGELCKAAMENSRLNRIIATVIHNEVDCDVFFPIDFRSSQSCLPWRKQDHSVLEAWVGSKVPQGKINENGFIYEFEMWIRDI [H135N] | -0.0576 ± 0.084 | 0.0259 ± 0.14
MDWQKSLTLIVALTLSRGIGLKNDLPWKLKSDMMFFSRVTSGLLVTRSTGQMNVVLMGRKTWESLPAHSRPLKNRINVVISRQEVLDLGGGAYHARSLDDALALLSQIYDSTSKIQLNRVFVIGGGELCKAAMEHSRLNRIIATVIHNEVDCDVFFPIDFRSSQSCLPWRKQDHSVLEAWVGSKVPQGKINENGFIYEFRMWIRDI [E200R] | 0.305 ± 0.073 | 0.309 ± 0.083
MDWQKSLTLIVALTLSRGIGLKNDLPWKLKSDMMFFSRVCSGLLVTRSTGQMNVVLMGRKTWESLPAHSRPLKNRINVVISRQEVLDLGGGAYHARSLDDALALLSQIYDSTSKIQLNRVFVIGGGELCKAAMEHSRLNRIIATVIHNEVDCDVFFPIDFRSSQSCLPWRKQDHSVLEAWVGSKVPQGKINENGFIYEFEMWIRDI [T40C] | 0.168 ± 0.078 | 0.216 ± 0.044
MDWQKSLTLIVALTLSRGIGLKNDLPWKLKSDMMFFSRVQSGLLVTRSTGQMNVVLMGRKTWESLPAHSRPLKNRINVVISRQEVLDLGGGAYHARSLDDALALLSQIYDSTSKIQLNRVFVIGGGELCKAAMEHSRLNRIIATVIHNEVDCDVFFPIDFRSSQSCLPWRKQDHSVLEAWVGSKVPQGKINENGFIYEFEMWIRDI [T40Q] | -0.614 ± 0.085 | -0.299 ± 0.13
